Results taken from PubChem BioAssay AID504832 (National Center for Advancing Translational Sciences (NCATS), 2011).
The whole screen tested about 310,000 compounds, of which about 18,000 (5.8%) were called active. The shares of active, inactive and inconclusive entries below differ from those in the screen. The call rests on the fitted dose curve; in most records, active means well fitted inhibition curve with a large enough effect; inconclusive means small, poorly fitted or top-dose-only effect, or another doubt; inactive means no such curve, though single readings can be large or run the other way. Potencies of inconclusive entries are left out as doubtful fits.

Assay: Primary qHTS for delayed death inhibitors of the malarial parasite plastid, 48 hour incubation
Conditions: P. falciparum luciferase growth in erythrocytes; series mostly up to 28.7 µM
In short: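 Luciferase-expressing P. falciparum in infected erythrocytes (2% hematocrit, 0.1% parasitemia final) in RPMI 1640/0.5% Albumax were exposed to compound for 48 hours at 37 C, 5% CO2; growth read as luminescence.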
Potency means the concentration at half of the fitted maximal effect; tags describe the fitted curve by direction and shape.

Row | SMILES | Potency
1 | COc1cc2c(cc1OC)-c1cc(N3CCCc4ccccc43)nc(=O)n1CC2 | inconclusive [inhibitor, partial curve, poor fit]
2 | CC(=O)Nc1sc2c(c1C(c1cccc(Cl)c1)N1CCN(CCO)CC1)CCCC2 (configuration not stated) | inconclusive [inhibitor, partial curve, poor fit]
3 | Cc1nc(NS(=O)(=O)c2ccccc2)sc1NC(=O)Nc1ccccc1 | inconclusive [inhibitor, single point]
4 | CC(=O)N1CCN(S(=O)(=O)c2cccc(C(=O)OCc3ccc(C(C)(C)C)cc3)c2)CC1 | active: 11.7 µM
5 | C[C@]12CCC(=O)C[C@@H]1CC[C@@H]1[C@@H]2CC[C@]2(C)[C@@H](O)CC[C@@H]12 | inactive
6 | COc1ccc(-n2c(SCC(=O)Nc3nccs3)nc3c(c2=O)SC(C)C3)cc1 (configuration not stated) | active: 1.65 µM
7 | COc1ccc(CCNC(=O)C2CCN(C(=O)c3ccc(C(C)(C)C)cc3)CC2)cc1OC | inconclusive [inhibitor, partial curve]
8 | [N-]=C=C1C(=S)NC(=O)[C@H]([n+]2ccccc2)[C@H]1c1ccc(Cl)cc1 | inconclusive [inhibitor, full curve]
9 | O=C(c1cccs1)N1CCC(c2nc3c(nnn3Cc3ccccc3Cl)c(=O)[nH]2)CC1 | active: 10.4 µM
10 | Cc1ccc(C(NC(=O)CN2C(=O)NC3(CCCC3)C2=O)c2ccccc2)cc1 (configuration not stated) | inconclusive [inhibitor, single point]
11 | COc1ccc(S(=O)(=O)N2CCCN(CC(=O)Nc3cc(NC(C)=O)ccc3OC)CC2)cc1 | inconclusive [inhibitor, partial curve]
12 | CCOc1ccc(CCNC(=O)Cn2ccc3cc(S(=O)(=O)N4CCCC4)ccc32)cc1 | inconclusive [inhibitor, partial curve]
13 | Cc1cc(C)c(S(=O)(=O)/N=C2\C=C(Nc3ccc(C(=O)O)cc3)C(=O)c3ccccc32)c(C)c1 | active: 9.28 µM
14 | COc1ccc(-c2nnn(CC(=O)N(CC(=O)NC3CCCC3)c3cccc(C)c3)n2)cc1OC | inconclusive [inhibitor, partial curve, poor fit]
15 | CCOc1cc(/C=N\Nc2ncc(F)c(N3CCOCC3)n2)ccc1Oc1nc(Cl)ncc1F | active: 1.65 µM
16 | Cc1ccc(CCNC(=O)c2nn(C)c3c2CS(=O)(=O)c2ccccc2-3)cc1 | inconclusive [inhibitor, partial curve, poor fit]
17 | COc1cc(/C=C(\NC(=O)c2ccccc2)C(=O)Nc2cccc(O)c2)c([N+](=O)[O-])cc1OC | inactive
18 | COc1ccc(CCNC(=O)Cn2cnc3ccccc3c2=O)cc1OC | inactive
19 | O=c1oc2c(CN3CCCCC3)c(O)ccc2cc1-c1nc2ccccc2[nH]1 | inconclusive [inhibitor, single point]

Row | SMILES | Potency
20 | Cc1ccc(Cn2cc(SCC(=O)Nc3nccs3)c3ccccc32)cc1 | inconclusive [inhibitor, partial curve]
21 | c1ccc(OCCn2c(-c3ccco3)nc3ccccc32)cc1 | inconclusive [inhibitor, single point]
22 | O=[N+]([O-])c1ccc(CNc2cccc(Cl)c2)s1 | inconclusive [inhibitor, single point]
23 | O=C(c1cc2c(s1)CCCC2)N1CCN(S(=O)(=O)c2ccccc2C(F)(F)F)CC1 | inconclusive [inhibitor, partial curve, poor fit]
24 | CC(C)N(C(=O)COC(=O)c1ccc(O)cc1)C(C)C | inactive
25 | CCN(C(=O)CSc1nc(C)nc2sc(C)c(C)c12)C1CCS(=O)(=O)C1 (configuration not stated) | inconclusive [inhibitor, single point]
26 | CCCNCc1cc(Br)ccc1OCC(=O)NCCc1ccccc1 | active: 13.1 µM
27 | Cc1ccc(NS(=O)(=O)c2ccc(-c3coc(C)n3)cc2)c(C)c1 | inactive
28 | CCOc1ccc(C(C(=O)NCC2CCCO2)N(Cc2ccccc2)C(=O)c2snc(C(N)=O)c2N)cc1 (configuration not stated) | inconclusive [inhibitor, partial curve]
29 | CN(CC1CCOCC1)C(=O)CC1C(=O)NCCN1Cc1ccc(F)c(F)c1 (configuration not stated) | inconclusive [inhibitor, single point]
30 | Cc1nc2c(sc(=S)n2Cc2ccco2)c(=O)n1CC(=O)Nc1ccccc1 | inconclusive [inhibitor, partial curve, poor fit]
31 | CCCCN(C)C(=O)c1oc2ccc(S(=O)(=O)N3CCCCCC3)cc2c1C | inconclusive [inhibitor, single point]
32 | Cc1ccc(NC(=O)COC(=O)c2c(-c3ccccc3)noc2C)cc1 | inconclusive [inhibitor, partial curve, poor fit]
33 | CC1(C)C[C@H]2C=C(C=O)[C@]3(C=O)C[C@]3(C)[C@H]2C1 | inconclusive [inhibitor, single point]
34 | O=C(OC[C@H]1O[C@@H](OC(=O)c2cc(O)c(O)c(OC(=O)c3cc(O)c(O)c(O)c3)c2)[C@H](OC(=O)c2cc(O)c(O)c(OC(=O)c3cc(O)c(O)c(O)c3)c2)[C@@H](OC(=O)c2cc(O)c(O)c(OC(=O)c3cc(O)c(O)c(O)c3)c2)[C@@H]1OC(=O)c1cc(O)c(O)c(OC(=O)c2cc(O)c(O)c(O)c2)c1)c1cc(O)c(O)c(OC(=O)c2cc(O)c(O)c(O)c2)c1 | inconclusive [inhibitor, single point]
35 | Cc1ccccc1CCN1CCCC(CN(C)C(=O)c2ccc3ncccc3c2)C1 (configuration not stated) | inconclusive [inhibitor, single point]
36 | COCCNC(=O)c1onc(CS(=O)(=O)c2cc(C)cc(C)c2)c1C(=O)NCCOC | inconclusive [inhibitor, partial curve, poor fit]
37 | Oc1ccc(N=C/C=C/c2cccc(Br)c2)cc1-c1nc2ccccc2s1 | inconclusive [inhibitor, single point]
